Laboratory results published in ChEMBL document CHEMBL4888484, “Replenishing the malaria drug discovery pipeline: Screening and hit evaluation of the MMV Hit Generation Library 1 (HGL1) against asexual blood stage Plasmodium falciparum ,using a nano luciferase reporter read-out” (2022).
Out of some 150,000 compounds screened, about 540 (0.36%) showed an effect of 50% or more. The list shows a part of the results.

tested on: Plasmodium falciparum; assay: Primary screen in NF54 nanoGlo assay, in single point, at 2uM, 72h; a lower Z score goes with more inhibition; type: functional, Erythrocyte; settings: timepoint 72 hour

Structure (SMILES)	% Inhibition [%]	Z score
Cc1nn(C)c(C)c1CN(C)[C@@H]1CCCC[C@@H]1O	-21	1.97
O=C1NC2(CCN(C(=O)NC3CCCCC3)CC2)Nc2c(Cl)cccc21	5	-0.68
Cc1ccccc1C(CN1CCOCC1)N[C@@H]1C=C[C@H](CO)C1 (stereo partly specified)	-6	0.86
Cc1cc(CNCc2c(C(=O)N3CCCCCCC3)nc3ccc(Cl)cn23)nn1C	-10	1.91
Cc1cccc(-c2cnc(NC(=O)CN3CCC(CO)CC3)s2)c1	-16	2.69
CN(C(=O)c1ccc(Br)cc1Cl)c1cccnc1	-8	1.28
CCn1cc(S(=O)(=O)N2CC[C@@H]3C(=O)NCCCCCCN(Cc4ccncc4)[C@@H]3C2)cn1	0	0.02
COc1ccc(Oc2c(N3CCOCC3)cnn(-c3ccc(C)cc3)c2=O)cc1	20	-2.88
CCC(CC)C(=O)Nc1ccc(F)c(Cl)c1	-7	1.31
CC(C)CC(=O)N1CC2(C[C@H](CC(=O)N3CCOCC3)CO2)C1	2	-0.36
Cc1cc(C)n2c(Nc3c(C)cccc3C)c(C3CCCCC3)nc2c1	-7	1.13
O=C(NC1CCN(c2ccccc2C(=O)N2CCN(C3CCCCCC3)CC2)CC1)C1CCC1	-10	1
CCn1nncc1CNC(=O)[C@@H]1NCCOc2ccccc21	-16	2.98
O=C(C1=CCCC1)N(c1cccc(O)c1)S(=O)(=O)c1ccccc1	-13	1.19
CC[C@H](NC(=O)c1cnc(O)cn1)c1cc(C)ccn1	-2	0.31
NC(=O)Cc1nc([C@H]2CC(=O)N(C3CCCC3)C2)n(CC(F)(F)F)n1	-14	2.04
CC[C@H](NC(=O)Nc1ccc(N2CCCC2)c(C)c1)c1nccs1	-17	2.69
O=S(=O)(NC(C1CC1)C1CC1)c1ccc(Br)cc1Cl	4	-0.86
CCOC(=O)Cc1csc(NC(=O)C(=O)OCC)n1	7	-0.98
CC[C@H]1C[C@@H](NC(=O)c2ccccc2)C[C@@H](c2ccccc2OCC(N)=O)O1	-18	2.6
Cc1nc(CN(C)C(=O)NC(C)(C)CN2CCCCCC2)no1	-6	0.68
CCOCCC(=O)Nc1nnc(C(C)C)s1	4	-0.71
Cc1ccc2nc3c(cc2c1)CCN3C(=O)COc1ccc(Cl)cc1	-2	0.22
